From the antibiotic and cytotoxicity screens of Wong et al. (2023)
The other results are listed elsewhere or left out.

Assays:
HSkMC = human skeletal muscle cells; assay: cytotoxicity call (relative viability < 0.9); conditions: 10 µM
HepG2 = assay: cytotoxicity call (relative viability < 0.9); conditions: 10 µM
S. aureus RN4220 = assay: growth inhibition call (relative growth <= 0.2); conditions: 50 µM

Cc1ccc(S(=O)(=O)N(C)C[C@@H]2Oc3ccc(NS(=O)(=O)c4cccs4)cc3CC(=O)N([C@@H](C)CO)C[C@H]2C)cc1
inactive: cytotoxicity call (HSkMC) | cytotoxicity call (HepG2) | growth inhibition call (S. aureus RN4220)

O=C(C[C@H]1C[C@H]2c3cc(NC(=O)C4CCOCC4)ccc3O[C@H]2[C@@H](CO)O1)NCc1ccc(Cl)cc1
inactive: cytotoxicity call (HSkMC) | cytotoxicity call (HepG2) | growth inhibition call (S. aureus RN4220)

C[C@@H]1CN([C@@H](C)CO)C(=O)CCCn2cc(nn2)CO[C@H]1CN(C)C(=O)c1ccc(N2CCN(C)CC2)cc1
inactive: cytotoxicity call (HSkMC) | cytotoxicity call (HepG2) | growth inhibition call (S. aureus RN4220)

COc1ccc(NC(=O)N(C)C[C@H]2OCc3ccccc3-c3c(n(C)c4ccccc34)C(=O)N([C@@H](C)CO)C[C@H]2C)cc1
inactive: cytotoxicity call (HSkMC) | cytotoxicity call (HepG2) | growth inhibition call (S. aureus RN4220)

Cc1ccc(S(=O)(=O)N(C)C[C@H]2OCCCC[C@H](C)Oc3ccc(NC(=O)Nc4ccccc4)cc3C(=O)N([C@H](C)CO)C[C@H]2C)cc1
inactive: cytotoxicity call (HSkMC) | cytotoxicity call (HepG2) | growth inhibition call (S. aureus RN4220)

C[C@@H]1CN([C@H](C)CO)C(=O)Cc2cc(NC(=O)CCN3CCOCC3)ccc2O[C@@H]1CN(C)S(=O)(=O)c1ccc(F)cc1
inactive: cytotoxicity call (HSkMC) | cytotoxicity call (HepG2) | growth inhibition call (S. aureus RN4220)

C[C@@H]1CN([C@H](C)CO)C(=O)c2cc(NC(=O)Nc3ccc(F)cc3)ccc2O[C@@H](C)CCCCO[C@H]1CN(C)C(=O)c1ccccc1
inactive: cytotoxicity call (HSkMC) | cytotoxicity call (HepG2) | growth inhibition call (S. aureus RN4220)

COc1ccc(CN(C)C[C@@H]2OCCCC[C@H](C)Oc3ccc(NS(=O)(=O)c4ccc(C)cc4)cc3C(=O)N([C@@H](C)CO)C[C@@H]2C)cc1
inactive: cytotoxicity call (HSkMC) | cytotoxicity call (HepG2) | growth inhibition call (S. aureus RN4220)

COc1ccncc1N
inactive: cytotoxicity call (HSkMC) | cytotoxicity call (HepG2) | growth inhibition call (S. aureus RN4220)
